Assay results published in the supplement of paper PMC3334620.
Over roughly 33,000 sequences, “E-score (-0.5 to 0.5)” has its median near -0.054; the highest 2% begin near 0.35. The list shows a part of the results.

The sequences below were run against T1, Stb5 (UniProt P38699) (assay: PBM E-score (8-mer binding enrichment) (E-score (-0.5 to 0.5)); higher = stronger / more preferred TF binding; most listed sequences are background and not binding sites). Conditions: protein concentration: 200 nM; construct: GST-full length.
T1 sequence: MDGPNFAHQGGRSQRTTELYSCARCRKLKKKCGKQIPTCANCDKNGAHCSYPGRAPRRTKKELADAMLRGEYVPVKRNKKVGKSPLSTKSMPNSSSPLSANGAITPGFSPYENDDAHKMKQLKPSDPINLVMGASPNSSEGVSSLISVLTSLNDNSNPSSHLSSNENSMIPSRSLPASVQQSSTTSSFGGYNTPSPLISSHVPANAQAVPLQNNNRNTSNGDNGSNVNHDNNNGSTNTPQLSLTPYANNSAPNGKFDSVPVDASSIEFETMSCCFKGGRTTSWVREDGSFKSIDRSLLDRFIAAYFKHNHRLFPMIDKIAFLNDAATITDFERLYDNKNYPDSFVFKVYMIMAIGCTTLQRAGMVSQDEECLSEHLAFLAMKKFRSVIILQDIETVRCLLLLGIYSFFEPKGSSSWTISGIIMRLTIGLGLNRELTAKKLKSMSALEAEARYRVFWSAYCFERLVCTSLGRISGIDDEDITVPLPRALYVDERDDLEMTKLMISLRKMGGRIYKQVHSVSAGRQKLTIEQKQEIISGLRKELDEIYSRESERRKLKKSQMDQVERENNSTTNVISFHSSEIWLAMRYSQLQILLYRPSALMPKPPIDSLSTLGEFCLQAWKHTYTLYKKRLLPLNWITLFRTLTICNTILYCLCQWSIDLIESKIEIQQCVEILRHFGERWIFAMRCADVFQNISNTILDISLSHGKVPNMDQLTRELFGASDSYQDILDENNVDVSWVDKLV
In short: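 Universal all-10-mer Agilent arrays, double-stranded by primer extension on fresh or once-stripped slides, were probed with about 100-200 nM GST-tagged yeast transcription factors made by PURExpress. Fluorescent anti-GST detected bound protein, and masliner normalised the scans. E-scores from the Universal PBM Analysis Suite were given to each ungapped eight-base word pooled with its reverse complement.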

Point of comparison: CAATCTGA, “PBM E-score” value -0.151. Against it:
- ATATGCGA — higher, 0.113
- CCAGGGGC — higher, -0.0801
- CTCCCCCA — higher, -0.0446
- CTCACCTC — lower, -0.37
- CCTCGGGC — higher, 0.162
- CGCGAGTA — higher, 0.122
- CCACATTA — higher, -0.0924
- ACGGAGGA — higher, 0.125
- AACGACGG — higher, 0.242
- CATTGTGA — higher, -0.0411
- ACTGACTC — higher, -0.0316
- GATCCATA — higher, 0.0949
- GAACGCCA — lower, -0.183
- ACCCGGTA — higher, 0.198
- TGCTTGAA — lower, -0.188
- CAAGTGAC — higher, -0.13
- CTGAGGTC — lower, -0.297
- CTGGGTTA — lower, -0.204
- GAGGTTCC — higher, -0.0824
- CCTCTTGC — higher, -0.00087
- AAAGCTAT — higher, -0.0265
- AATGCACC — higher, 0.11
- CATAGAGC — higher, -0.14
- CTGGAAGC — lower, -0.3
- AATTAACC — higher, 0.305
- ATACGACA — lower, -0.228
- ATAAGAAT — higher, -0.0685
- AAAGGCCA — higher, -0.146
- AGCAACGC — higher, 0.103
- ACATTACA — higher, -0.0794
- ACCAGTAA — higher, 0.0498
- GCGTACCA — higher, -0.102
- AGTGGCGC — higher, 0.07
- GGCAGACC — higher, -0.0351
- GAGTCGGC — higher, 0.245
- AGGGTGTG — lower, -0.307
- ACCTTCGT — lower, -0.176
- CTCTTTCA — lower, -0.173
- CGTCAGAA — higher, -0.0428
- CTCCATGC — lower, -0.296
- AATCCGCC — higher, 0.192
- AAATGCTT — higher, -0.122
- CCGATCGG — higher, 0.413
- ACGGATGA — higher, -0.148
- TCAGCACA — lower, -0.247
- ATCCAGAT — higher, 8e-05
- ACGTTAGT — higher, -0.107
- CCCCTTCA — lower, -0.234
- GGCTAGGA — lower, -0.328
- GTTCGGAA — higher, 0.221
- CTTTGTCC — higher, 0.0835
- CAGCTCAC — lower, -0.19
- ACCCCGCC — higher, 0.463
- ACCAACAG — higher, -0.0399
- CCCGCCCA — higher, 0.258
- AACCTGGT — higher, -0.135
- ACTAGCCT — higher, -0.105
- ACCAGGAA — higher, 0.00633
- ACACCCCT — higher, -0.0768
- ACTAAGTG — higher, -0.14
- TCTTGACA — lower, -0.157
- CGGTCTAA — higher, 0.23
- CGGGCGTA — higher, 0.336
- GAGGAGCA — lower, -0.244
- ATCGTTTC — higher, -0.125
- CCAGAACA — lower, -0.196
- AAAACTAG — higher, 0.0889
- GCAAAGCC — higher, -0.0499
- CATTATCC — higher, 0.165
- CACGGTAC — higher, 0.258
- GCGTTCTA — higher, 0.019
- AAAGATGG — higher, -0.106
- GAAGTATA — higher, 0.0151
- GAGCATGA — lower, -0.196
- CCTGCACC — higher, -0.0601
- CAGATCCG — higher, 0.144
- AAATAGCC — higher, 0.165
- CACAACTG — lower, -0.316
- GGCAGCAC — higher, -0.124
- CTTGGAAC — higher, -0.0483
- CGATGTTC — higher, -0.0586
- GGTCCGGA — higher, 0.391
- GAACAAGA — higher, -0.0829
- GCGGCGCA — higher, 0.19
- ATTGGTGC — higher, 0.0845
- CTATACAA — lower, -0.162
- TAATAATA — higher, 0.0873
- CGGAGCGC — higher, 0.164
- GTTCTGAA — lower, -0.273
- CAGCACCA — lower, -0.196
- TAGGCTCA — lower, -0.198
- AATTGTGC — higher, -0.0245
- CGGCCGCC — higher, 0.178
- CCTATCGA — lower, -0.243
- CTCCCACC — higher, -0.126
- GAGGCCGA — higher, 0.244
- CGTCAGGC — higher, 0.0486
- GATGCCAA — higher, -0.114
- CCACGACG — higher, 0.00871
- CGTGCTCA — higher, -0.0212
- TAATAGGA — higher, 0.0539
- GCGTACGA — higher, -0.0889
- CGTCTAGA — higher, -0.0355
- ACTTTATG — higher, -0.0536
- GGCCGGCA — higher, 0.289
- TGACCACA — lower, -0.365
- CGATAGAG — higher, -0.0108
- CGCACTCA — higher, 0.055
- ATTCCAAA — lower, -0.284
- AAACATAG — lower, -0.191
- ACTTCTAG — higher, 0.0518
- CCATTGTC — higher, -0.0474
- AAGTGCGG — higher, 0.217
- ACAATAGA — higher, -0.112
- ACATGTTC — higher, -0.0736
- GCCAGTAA — higher, -0.0797
- ATTGGGGG — lower, -0.221
- AGCCGTAG — higher, -0.0748
- ATTCGCCG — higher, 0.248
- CGACACCA — higher, 0.0464
- CGCGTAAG — higher, 0.0432
- GTAGCGAA — lower, -0.207
- CAATTATC — higher, 0.215
- CAGCGCCA — higher, 0.116
- TCTTTAAA — higher, -0.0495
- AGGGTTTA — higher, -0.028
- ATTGAGGG — higher, -0.117
- ATAAGTAT — higher, -0.124
- AGACTCAC — lower, -0.243
- CCGCTCCC — higher, 0.247
- ATATCTAG — higher, -0.106
- CTTCGTTA — higher, -0.0578
- CAGGTTAG — higher, 0.0211
- AAGACGGG — higher, 0.155
- GACCGTAA — higher, 0.186
- AGACGGAC — higher, 0.331
- CAGCTCTC — lower, -0.249
- GCATTACC — higher, 0.0712
- CAGCAGTA — lower, -0.238
- AAATCTTG — higher, -0.0662
- TAGGACTA — higher, -0.0597
- ATCCCCCA — lower, -0.265
- GAACGCCC — higher, -0.0162
- ACTGGAAG — lower, -0.182
- GCCTAAGC — higher, 0.053
- AATTACGT — higher, -0.15
- ATGTGATA — lower, -0.21
- ACGAGCGC — higher, 0.103
- AATTTGGC — higher, -0.092
- CTCGCTTC — higher, 0.0542
- ACGGTAGC — higher, 0.00794
- ACATATGG — higher, -0.0647
- GGCGCAGA — higher, -0.0492
- CTACAACC — higher, -0.0393
- AACGTCGA — lower, -0.175
- CAAACGTG — lower, -0.236
- CACAATAG — higher, -0.0261
- TAGCATAA — higher, -0.0636
- GGCCGGAA — higher, 0.193
- CGGCGCCC — higher, 0.125
- AGCGGATA — higher, 0.286
- ATCGGGGA — higher, 0.307
- CGGCTCTC — higher, -0.0773
- GAGCTCAA — higher, 0.0147
- ACGTTCCT — lower, -0.244
- CTAACAAG — lower, -0.159
- ACCAAGAG — lower, -0.245
- GGAATACA — higher, 0.179
- AGAGGCGC — higher, -0.0702
- ACGACCAC — lower, -0.177
- GGCTAGAA — higher, 0.026
